Measured values taken from the supplement of paper PMC3334620.
Over roughly 33,000 sequences, “E-score (-0.5 to 0.5)” has its median near -0.016; the highest 2% begin near 0.32. Some of the results follow.

Target: T1, Stp1 (UniProt B3LFK1)
T1 sequence: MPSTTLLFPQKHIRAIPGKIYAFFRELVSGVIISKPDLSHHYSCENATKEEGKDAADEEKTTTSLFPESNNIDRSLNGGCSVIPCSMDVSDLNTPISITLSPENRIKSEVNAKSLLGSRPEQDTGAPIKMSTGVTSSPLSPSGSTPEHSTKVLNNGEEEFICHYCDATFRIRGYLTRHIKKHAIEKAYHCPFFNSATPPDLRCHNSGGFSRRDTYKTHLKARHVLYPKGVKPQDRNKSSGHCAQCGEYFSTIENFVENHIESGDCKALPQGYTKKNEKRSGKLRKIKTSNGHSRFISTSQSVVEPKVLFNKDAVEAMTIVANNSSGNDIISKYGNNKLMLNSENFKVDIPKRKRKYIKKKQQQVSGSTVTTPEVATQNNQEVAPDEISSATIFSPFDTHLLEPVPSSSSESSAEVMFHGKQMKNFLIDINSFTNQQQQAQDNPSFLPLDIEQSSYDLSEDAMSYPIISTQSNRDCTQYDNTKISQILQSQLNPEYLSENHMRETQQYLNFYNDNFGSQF
Assay: PBM E-score (8-mer binding enrichment) (E-score (-0.5 to 0.5)); higher = stronger / more preferred TF binding; most listed sequences are background and not binding sites
Conditions: protein concentration: 200 nM; construct: GST-full length
In short: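 PURExpress in vitro transcription/translation supplied GST-tagged yeast transcription factors, either full-length or DNA-binding domain. Applied at about 100-200 nM to universal all-10-mer Agilent arrays double-stranded by primer extension, the bound protein was detected with fluorescent anti-GST. E-scores, modified Wilcoxon-Mann-Whitney statistics, were given by the Universal PBM Analysis Suite to ungapped eight-base words pooled with their reverse complements after masliner normalisation.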

Sequence | PBM E-score
CAAGTCAA | -0.124
ACAGTCCA | -0.17
TAATGCTA | 0.144
GATGGGCA | 0.0916
AAAATCTG | 0.0757
TAGTAGCA | 0.0314
CGCTTCCC | -0.0155
ATCTGTGA | -0.043
CGTATGAG | 0.024
AAAGCACC | -0.0771
ATCTCCAG | -0.0955
GTGGCTCA | -0.0195
CAACCATG | -0.0314
AGCTTGAG | -0.163
CCGCGGCA | 0.441
CAGGCCTA | -0.153
CCTCAGAA | -0.0809
CACTGATA | 0.0376
CCAGTCGC | -0.059
ACCTACGA | -0.126
AGTGCCGC | 0.477
ATCGATGA | 0.096
CCTCTCCC | -0.253
AGTTCCAG | -0.102
AGAGTTCG | 0.132

Sequence | PBM E-score
GTGACGTA | -0.00784
CGTAAGGA | -0.0941
CATCGATC | -0.136
CAGACGCA | -0.0219
CGGCCTAA | 0.0381
CGGTAACG | -0.139
GGCGAGCC | -0.0109
CTAGCGAA | -0.163
AGATGAAA | 0.195
AGGTTAAG | -0.229
CGCCCCGA | 0.0222
CCTGAAGG | -0.12
GCACAAAC | 0.195
CCCCAACA | -0.224
GATGGGAA | -0.169
ACTCTAAC | -0.0909
GATGAATC | 0.0331
CGTGTAGC | -0.0261
CCGAACAG | -0.13
ACAAAATA | -0.0287
AGTGAGTG | -0.143
CGATTCCC | -0.155
AATTCTTG | 0.174
AGTCGCAC | -0.144
CTCGCGGC | 0.334

Sequence | PBM E-score
AGCCGCCC | 0.11
CTATACTC | -0.222
GCCAGTGA | -0.135
CGCTGAAC | 0.105
CGCCCAAA | 0.0325
CAACCCGC | -0.064
AACGACGC | 0.0702
ATCCCTTC | -0.127
ACTCTCCA | -0.0819
TCACAGAA | 0.0134
GACAGCCA | -0.133
AATATATT | 0.279
CTTGAACC | -0.0677
AACGCCTG | 0.0127
CACTTACG | 0.0989
CCATAAAA | 0.0605
ACAATATG | 0.204
ACATCACC | -0.163
AGGCAACG | 0.0557
GATTGGTA | 0.0927
CCTGAAAG | 0.0268
CGGAAGTC | -0.0363
AGCTTTGA | -0.174
AAAGAGTA | 0.172
ACCCGGCC | -0.225

Sequence | PBM E-score
CTTTGTGA | 0.00752
CCTTCTCA | -0.152
GGCCCTAC | -0.265
GCGCGCGC | 0.396
GACCACAC | -0.0789
GACCCCTC | -0.368
CAGCGCTA | 0.0165
TACGGTAA | 0.157
CCTGACCC | -0.173
CTAACCAA | 0.079
AGAAGGCT | -0.102
GGGAGTGA | -0.0488
AACCCGAT | -0.0435
CAGCCGGC | 0.153
CAGGGTAC | -0.283
ATACTGAT | 0.162
GCTGAACA | 0.0152
GGCTTCAA | 0.221
CCGTAGTA | 0.105
ATAAAGTC | 0.139
AGGTTATA | -0.0417
CCTCGAAG | -0.0677
ACAAGGTA | -0.0272
AGTTAAAA | 0.197
GCCCCTAC | -0.188

Sequence | PBM E-score
GGATAGCC | 0.0249
GTAGTCAA | 0.00301
AAGTGTTC | -0.0432
CGGGAACC | -0.261
AAGTATGA | -0.0122
AAGAGAAT | 0.0337
ATTGCTAC | 0.0429
TCGTAAGA | -0.00593
GTGTAACA | 0.0681
CCGAACAC | 0.0129
CTCCAGCA | -0.266
ATGACCAA | -0.0118
AAAGGACC | 0.0732
CTCTGAGC | -0.22
GGTCCACA | -0.113
AACACTCG | 0.0624
CTGGCCCC | -0.311
CTACTGGC | -0.0297
AATAGCGC | 0.193
ATGTCGAC | 0.0335
GCCTCGCC | 0.314
AAATGAGG | -0.0464
AGGGTGTA | -0.0304
AGCGCACC | -0.119
GATTCACC | -0.206

Sequence | PBM E-score
GTCGACCA | -0.0268
ACGGTCGC | -0.12
AGGCTACT | -0.113
GTCATGAA | 0.0695
AATGTGAT | -0.103
CTCGTCCA | 0.136
AAGATCGA | 0.0364
CATTAAGC | 0.083
CTGTCATC | -0.21
TCGACGCA | 0.022
ACCTTTAA | -0.117
GTATATAC | -0.0138
AAACTCCG | 0.0574
CACTAGCG | -0.039
CCAGGGTA | -0.276
GATTACTA | 0.0291
AAACCCCG | 0.00861
ACGAGCAT | -0.218
CCGTACTA | 0.206
GCGGGCTA | -0.188
GCACAAGA | 0.176
TCCCGAGA | -0.045
CAAGGTCC | -0.184
AGCTTTCG | -0.168
ACCAACGA | -0.0672

Sequence | PBM E-score
GTCACCAC | -0.104
ATTCTCGG | 0.181
CTTTGGAC | 0.179
CAAGCCTA | 0.0446
TACATTGA | 0.0408
AGTTCGGC | 0.0626
TATGAGGA | -0.0663
ACTAAGAA | 0.0736
AGGAACAA | -0.114
GTAACCCA | 0.235
AGACTTAG | -0.269
ACGACACG | 0.0496
ACGTTACG | 0.0858
TATCCCAA | 0.0205
AGGTATCA | -0.027
ATCTATCC | 0.0113
ATTGTAGC | 0.0881
CATATCAC | 0.0345
ACGCTTAC | -0.0802
GGACCAAA | 0.0378
ACGAGTCC | -0.0144
GGCCATAC | 0.0794
